Hit rate of the full screen: of about 310,000 compounds, about 14,000 (4.5%) showed an effect of 50% or more. The effect is printed as a negative number. Some of the results follow.
target: human ether-à-go-go-related gene (hERG) potassium channel (human, UniProt Q12809); test: primary screen, population patch clamp on CHO cells stably expressing hERG
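Also: peak tail current of the secondary pulse compared with the same well before compound.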

human ether-à-go-go-related gene (hERG) potassium channel, sequence (Q12809 whole entry, looked up): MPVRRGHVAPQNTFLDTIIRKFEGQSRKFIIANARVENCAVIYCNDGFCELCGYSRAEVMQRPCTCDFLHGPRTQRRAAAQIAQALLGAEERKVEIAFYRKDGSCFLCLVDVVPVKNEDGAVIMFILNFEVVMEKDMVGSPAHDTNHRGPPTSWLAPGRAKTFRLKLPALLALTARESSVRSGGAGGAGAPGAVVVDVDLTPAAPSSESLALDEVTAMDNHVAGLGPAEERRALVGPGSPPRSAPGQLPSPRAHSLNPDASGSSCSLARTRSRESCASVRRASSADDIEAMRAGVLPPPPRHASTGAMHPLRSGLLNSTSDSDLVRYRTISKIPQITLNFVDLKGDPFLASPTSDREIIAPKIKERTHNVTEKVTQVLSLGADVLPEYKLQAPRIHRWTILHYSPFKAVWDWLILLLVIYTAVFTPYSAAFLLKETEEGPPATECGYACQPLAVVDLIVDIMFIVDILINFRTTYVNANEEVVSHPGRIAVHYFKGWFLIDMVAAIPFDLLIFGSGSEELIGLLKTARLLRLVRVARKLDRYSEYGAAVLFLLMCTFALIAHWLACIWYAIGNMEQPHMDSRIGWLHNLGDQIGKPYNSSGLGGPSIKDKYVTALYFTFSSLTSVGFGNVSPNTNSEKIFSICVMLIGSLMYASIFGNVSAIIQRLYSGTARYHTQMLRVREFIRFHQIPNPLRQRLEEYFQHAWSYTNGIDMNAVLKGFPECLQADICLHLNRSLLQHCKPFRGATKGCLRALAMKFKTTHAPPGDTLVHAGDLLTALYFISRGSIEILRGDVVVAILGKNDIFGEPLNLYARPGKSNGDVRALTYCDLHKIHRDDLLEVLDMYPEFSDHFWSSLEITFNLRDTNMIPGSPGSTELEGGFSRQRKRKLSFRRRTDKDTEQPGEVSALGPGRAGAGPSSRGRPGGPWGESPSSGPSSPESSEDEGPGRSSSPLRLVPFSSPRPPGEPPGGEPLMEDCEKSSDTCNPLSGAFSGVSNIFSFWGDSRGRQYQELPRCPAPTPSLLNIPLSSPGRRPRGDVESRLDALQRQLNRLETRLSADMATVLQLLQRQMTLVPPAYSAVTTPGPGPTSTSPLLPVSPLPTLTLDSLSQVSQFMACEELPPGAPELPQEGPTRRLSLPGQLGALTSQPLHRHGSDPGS

Compound | hERG current change (%, negative = inhibition) at 10uM [%]
NC(=S)NNC(=O)/C(=C/c1ccc(Br)cc1)NC(=O)c1ccccc1 | 40
CC1Oc2ccccc2C=C1/C=N\NC(=O)c1cccnc1 (centres unmarked) | -35
CCCCOC(=O)Oc1ccc2c(=O)c(Oc3cc(C)cc(C)c3)coc2c1 | 10.6
CC(=O)c1cc2c(cc1NS(=O)(=O)c1ccccc1Br)OCO2 | 14
CCNC(=S)N(CCc1c(C)[nH]c2ccc(Cl)cc12)Cc1ccco1 | -0.955
Cc1cc(Cl)c2oc(C(=O)NCC(C)(C)N3CCOCC3)c(C)c2c1 | 6.96
O=C(Nc1ccc(Cl)cc1)Nc1ccc(Oc2cccnc2)nc1 | 11.5
O=C(COC(=O)C1CCN(/C=C/C(=O)C(F)(F)F)CC1)Nc1cccc(F)c1 | -20.9
O=C(Nc1ccc(Cl)cc1N1CCOCC1)C1CCCO1 (centres unmarked) | 11.8
N#CCCN(C(=O)c1ccc2c(=O)n3c(nc2c1)CCCCC3)c1ccccc1 | -13
COc1ccc(CN(C(=O)c2cc3ccccc3oc2=O)C2CCS(=O)(=O)C2)cc1OC (centres unmarked) | 19.7
CC1(c2ccco2)NC(=O)NC1=O (centres unmarked) | 5.73
CCCNS(=O)(=O)c1cc(Cl)ccc1OC | 15.8
CC1CCN(C(=O)CSc2nncn2C)CC1 | 2.85
NC(=O)C1CCN(C(=O)CNC(=O)c2ccc(Br)o2)CC1 | -10.3
COc1cc(OC)c(S(=O)(=O)Nc2ccc(C(=O)N3CCCC3)cc2)cc1NC(C)=O | 13.6
Cc1cccc(/C=N/n2c(C)cc(C)c(C#N)c2=O)c1 | 5.72
Cc1ccc(Nc2nnc(SCC(=O)c3ccc(Br)s3)s2)c(C)c1 | 14.7
O=C(c1coc(=O)c(Br)c1)N1CCCc2ccccc21 | 8.22
O=C(O)/C(=C\c1cn(-c2ccccc2)nc1-c1ccc(Cl)cc1)NC(=O)c1ccccc1 | 9.42

Compound | hERG current change (%, negative = inhibition) at 10uM [%]
CCN(CC(=O)NCc1ccncc1)S(=O)(=O)c1ccc(OC)cc1 | -8.29
CCCCN(C(=S)NC(=O)c1ccccc1)c1c(N)n(Cc2ccccc2)c(=O)[nH]c1=O | 12.5
COc1ccc(NC(=O)/C=C/C(=O)O)cc1Cl | 12.1
COc1ccc(N2CC(C(=O)N3CCN(C)CC3)CC2=O)cc1 (centres unmarked) | 15.4
CCC(=O)NC(c1ccccc1)c1c(O)ccc2ccccc12 (centres unmarked) | 18.9
COC(=O)c1sc(NC(=O)CSc2nnc(C(C)C)n2C)nc1C | 6.64
N#Cc1nc(-c2ccc(OCc3ccccc3)cc2)oc1NCc1ccco1 | 7.75
COCCNC(=S)N1CCN(c2nc(-c3ccccc3)cs2)CC1 | -5.78
COC(=O)c1cnn2c(C(F)(F)F)cc(-c3ccco3)nc12 | 0.654
CC(=O)c1csc(-c2ccccc2)n1 | 14.5
CCOC(=O)C(CC)Sc1nc2c(cnn2-c2ccccc2)c(=O)[nH]1 (centres unmarked) | 1.26
O=C(NNc1ncc(C(F)(F)F)cc1Cl)c1c(Cl)cccc1Cl | -6.26
CCc1ccc(NC(=O)c2cc(C)nn2-c2ccccc2)cc1 | -3.26
CC1CC(=O)Nc2ccccc2N1S(=O)(=O)c1ccc(Br)cc1 (centres unmarked) | 19.1
NC(=O)NC(=O)CSc1ccccc1 | 17.1
CC1CC(OC(=O)CN2CCCCC2)CC(C)(C)C1 (centres unmarked) | 12.8
O=C(O)C1CCN(C(=O)c2ccccc2C(=O)N2CCC(C(=O)O)CC2)CC1 | 20.4
Cc1cc(=O)oc2c(C)c(OC(C)C(=O)NCC(O)c3ccccc3)ccc12 (centres unmarked) | 5.59
CC(=O)C(Cc1ccccc1)NC(=O)CN(C)Cc1ccccc1Cl (centres unmarked) | -17.8
Cc1ccc(C(=O)OCC(=O)N2CC(C)CC(C)C2)cc1S(=O)(=O)N1CCCCC1 (centres unmarked) | -37.5

Compound | hERG current change (%, negative = inhibition) at 10uM [%]
Cc1nnc2sc(SCc3ccccc3Cl)nn2c1=O | -14.9
CC(=O)N1CCSc2ccc(S(=O)(=O)Nc3ccccc3C)cc21 | -4.17
Cc1ccc2[nH]c(SCC(=O)N3CCOCC3)nc2c1C | 8.6
CN(C)c1ccc(CNC(=O)c2cc(S(=O)(=O)N3CCCC3)cn2C)cc1 | -10
CC(=O)Nc1nc2ccccc2n1Cc1ccccc1 | -20.3
O=C(CCCCCNc1nc(=S)[nH]c2ccccc12)NCc1ccccc1Cl | -8.69
O=C(Nc1ccc(Cl)c(Cl)c1)N(CCCN1CCOCC1)Cc1cccnc1 | -55.5
COc1ccc(C(CNC(=O)C2CC(=O)N(Cc3ccc(C)cc3)C2)N(C)C)cc1 (centres unmarked) | -17.4
COc1cc(C(=O)OCC(=O)N(CC(C)C)C2CCS(=O)(=O)C2)ccc1OCC(C)C (centres unmarked) | -12.4
COc1ccc(N2C(=O)CC(n3cnc4ccccc43)C2=O)cc1 (centres unmarked) | 0.448
Cc1ccc(-c2ccc(C3C(C#N)=C(N)Oc4n[nH]c(C)c43)o2)cc1 (centres unmarked) | 12
CCOC(=O)c1c(NC(NC(=O)C(C)C)C(Cl)(Cl)Cl)sc2c1CCC2 (centres unmarked) | 11
O=C(NCc1cccnc1)C(Cl)(Cl)Cl | 0.208
Cn1c(=O)[nH]c(=O)c2c1nc(NCc1ccccc1)n2CCCc1ccccc1 | 3.53
O=C(OCC(=O)N1CCCCC1)c1ccccc1SCC(=O)N1CCCCC1 | 11.2
O=C(Cc1ccc([N+](=O)[O-])cc1)NC(C(=O)[O-])C(O)c1cccc([N+](=O)[O-])c1.[Na+] (centres unmarked) | -0.659
O=C(NC(=S)Nc1cccnc1)c1cccc(Br)c1 | 14.9
Cc1nc2ccc(NC(=O)N3CCOCC3)cc2s1 | 14.5
CCOC(=O)c1oc2ccc(Cl)cc2c1NC(C)=O | 9.36
